Test results published in the supplement of paper PMC5499739.
In all, about 16,000 sequences were measured (“Z-score”: median about -0.37, highest 2% from about 3.1 on). Some of the results follow.

test system: RBM10 RRM1-ZnF-RRM2 (GST-tagged construct); assay: RNAcompete 7-mer binding Z-score; higher = stronger binding preference
Method in brief: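 In 1 ml Hepes pH 7.8 buffer with KCl, NaCl, glycerol, DTT, BSA and glutathione Sepharose beads, GST-tagged RBM10 constructs (20 pmol) were incubated for 30 min at 4°C with 1.5 nmol of a designed pool of 241 399 RNAs up to 41 nt. Four 2-min washes at 4°C followed, and bound RNA was detected by microarray hybridisation. Heptamer motif enrichment was expressed as a one-sided Z-score across probes containing each motif.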

Sequence	RNAcompete 7-mer binding Z-score
AACUUAG	-0.46
UUGAUAA	-0.515
UUGCGCC	-0.683
CCAGCUG	-0.653
CCCGCAA	-0.774
AACGUUA	-0.326
GCCCCGC	-0.599
UUCAGGC	-0.315
ACGAGGA	1.53
UCGUCAA	-0.428
CCUAUCU	-0.846
UCAUAAG	-0.57
CUUCUGG	-0.708
CCCGGAU	-0.417
ACGACAG	0.355
GGCCCAA	-0.333
CUAGUUC	-0.832
GCCGGUC	-0.377
CGAUCAG	0.144
UUCCAGG	0.0131
UGAAUGU	-0.0233
GUGAUCA	0.323
UCUCUAC	-0.785
GCCUGAU	-0.846
GCAAAAC	0.133

Sequence	RNAcompete 7-mer binding Z-score
AAGCGAU	0.264
CUCCCAC	-0.734
GGAGAGA	1.26
CAGUUCA	-0.537
UUGAUGG	0.993
AUAGAGC	0.534
GCGCAAA	-0.00512
UCACCGU	-0.814
AGGGUGA	4.25
UAACGCC	-0.857
UUUAGUC	-0.519
CGACGCA	-0.355
GUUCUCG	-0.661
UGUUCGA	-0.606
GAAUUCA	-0.238
UAGGGAC	2.24
AGCGCGC	-0.282
GGCUUGG	0.956
AGCGGGA	3.24
UAGGAAA	1.6
GUCAUGG	0.862
CCAACGA	-0.446
GUUAGCA	0.232
GGGGUUC	1.83
UUUUGUA	-0.737

Sequence	RNAcompete 7-mer binding Z-score
UGUAUGC	-0.22
UCUUCAG	-0.781
GGGUAUU	1.81
UAACGAG	0.177
AGGGACC	0.756
UCUAAAG	-0.544
CUGACGC	-0.748
CCAUCGG	-0.613
UUGAGGC	0.341
GCUAGGG	1.94
GAUAUUC	-0.439
CGUAUGA	-0.00877
UUCUCGC	-0.737
AAGGCCA	0.556
GAGGUUG	1.96
AGUUAGA	0.286
CGUAAUG	0.0932
CAAUGGG	3.4
AGACGCC	-1.1
AUCAUGC	-0.559
AGCGCAA	-0.187
UAUGACU	-0.613
GUACCGC	-0.329
CACCUAU	-0.978
UCAGCUC	-0.865

Sequence	RNAcompete 7-mer binding Z-score
UCAUCAU	-0.515
UAGACCC	-0.759
AUUAUGG	0.847
GAUGAGA	0.789
AACUCCC	-0.919
ACGAUGA	0.257
UGUAGAA	0.13
AAGUGGA	3.2
UCUGCGA	-0.73
CCCAACG	-0.475
GAAUCUU	-0.726
ACCGGGG	1.7
GAAUCAA	0.0896
UUAAGGU	0.898
UGUUUUA	-0.588
UCAGAGU	0.0786
UAGCGCG	0.13
UCGUCCG	-0.69
GGCAAGC	0.53
UACGCCG	-0.712
UAUGUCU	-0.668
UACGCAG	-0.187
UUCAGUG	0.181
CAAGGAA	1.77
CCCAGUU	-0.748

Sequence	RNAcompete 7-mer binding Z-score
CUGUGAU	-0.763
CUACAGC	-0.777
GUGCUCU	-0.657
AUGAUCU	-0.675
CACUUAU	-0.897
UUUAAUG	-0.471
GAUCGCU	-0.697
UAUGGCG	0.716
GGACCAA	0.793
AGGAAAC	1.35
UAUAUUC	-0.588
AUCGACG	-0.318
CACCUAC	-0.657
AUUAUCU	-0.81
CGGACCA	0.13
GGGGUGC	2.58
AAAGGGC	2.89
GGGAGUA	2.34
AAACCGG	0.599
UCUCAUG	-0.741
GAGUUUC	-0.318
AUAUAUA	-0.337
ACAUGGU	1.07
GACCAAG	-0.0124
UCUAGGC	-0.526

Sequence	RNAcompete 7-mer binding Z-score
ACUUAUG	-0.686
AUCCUAU	-0.814
CUCAGUG	-0.482
AAGUUUA	-0.479
UCCGUGA	-0.632
UCGAUCC	-0.737
CGCAAGG	0.341
AUACAUG	0.403
UUAAAGC	-0.439
UAUAUAG	-0.184
GUCCCAC	-0.697
AUUAGAA	-0.0343
UAUAUUA	-0.479
GGACGCG	1.35
UUCCUAG	-0.737
UAUCCAA	-0.73
GCGGUCA	0.0313
CGCCGGU	-0.413
UGUUGGA	0.585
UACCCGC	-0.639
UAGGAAG	1.94
GGCCAUU	-0.391
GUCCGCA	-0.672
UCUGCUU	-0.89
GGCAGUG	1.46

Sequence	RNAcompete 7-mer binding Z-score
CAGAGCA	0.257
ACCGAGA	-0.278
CAAAGAA	0.0058
GUUCCAA	-0.351
CGAAUAC	-0.442
CUCUUUG	-0.97
GGAUUCU	-0.191
UUUUUUC	-0.697
GACAGGG	2.93
CAACCUC	-0.792
CAGGGUG	2.84
UCAUUAC	-0.632
UUCCGUU	-0.581
AUGGACU	0.745
CCUGUGU	-0.77
CGCCAAA	-0.752
AGUUAAC	-0.125
GCCCGCG	-0.453
GUCAACA	-0.0343
UUUGGAU	-0.125
AGGCCAG	-0.0816
UCUAACA	-0.602
AACUCGA	-0.5
CUUACGC	-0.927
GUUCCGU	-0.373

Sequence	RNAcompete 7-mer binding Z-score
GAUUUAU	-0.424
CAUAAGA	-0.358
UUGUUGA	-0.278
CAAUGCC	-0.672
GAUGGUC	0.527
CGCCCUA	-0.766
UGGGUAG	3.34
GGAAUGA	2.1
ACAUCGC	-0.708
UGCAUUA	-0.202
UGCGAAU	-0.18
UCGCGGA	-0.00877
GGGCUCU	-0.00148
CUCGGCG	-0.125
GGCAUAG	1.23
GAGGGAC	2.02
UGGUUUG	0.993
UCGUUAG	-0.129
UACCAGA	-0.493
AAUACGA	0.0204
CUUGAAC	-0.781
UCGACAU	-0.497
CCCACCC	-0.337
GGAAGAG	3.03
UGUGACA	-0.125

Sequence	RNAcompete 7-mer binding Z-score
CGCUUAC	-0.788
AAUAAUC	-0.515
ACGGUGG	2.73
GUAGGAC	1.86
GACAUAA	-0.144
UUGUGUA	-0.504
ACUACGA	-0.435
AUAGCAA	-0.0161
UACCCUA	-0.675
UGUUGAU	-0.566
AUUUAUA	-0.697
UCCACAU	-0.599
UUCAUCU	-0.653
UUGGCCA	-0.34
CAUAAAU	-0.551
CUGGCGA	-0.162
GCAUUAG	-0.0415
CUUGUGG	-0.344
ACCAACG	-0.267
GACAAGC	-0.0233
CAAAUAU	-0.621
UAUGGGA	2.76
UAUACGG	0.253
UGACUAG	-0.187
CCGCUAA	-0.712

Sequence	RNAcompete 7-mer binding Z-score
GUUUGGA	0.942
AGUGGAC	1.44
CCUCUAA	-0.792
AGGAAUU	0.585
UUCGAGA	-0.337
CGAGAAC	-0.173
GCGAAGU	0.603
CGUAUUC	-0.668
CUAACAA	-0.515
GAAUAGG	3.18
AAUGGCA	1.68
UUGCUCU	-0.912
UCGUAUU	-0.267
CUCGCCU	-0.825
UGACGGG	2.14
CAUCGAG	-0.0889
ACUUUGU	-0.901
CCAUCAG	-0.628
UUACAAC	-0.449
UUUCCUU	-0.788
CAGGGAA	3.07
AAAUAUU	-0.46
GACUCAC	-0.737
UAACCGU	-0.664
CCACUCU	-0.817

Sequence	RNAcompete 7-mer binding Z-score
UUCCACC	-0.737
CGCAACC	-0.621
ACAUCCG	-0.613
GCUAGAU	-0.413
AUCUCAC	-0.792
UACCUUA	-0.799
ACCCAAA	-0.694
GAGCUAA	-0.173
AAUUAUU	-0.632
UCUAUAU	-0.719
GUUGGGA	3.05
AAUCGCG	-0.42
CUAAGGU	0.111
CCGACGG	0.428
UGAUCGG	0.782
AGCAUCC	-0.595
GCUCAUA	-0.686
CGCUUGG	-0.508
ACGAUUA	-0.424
UCGUCAC	-0.398
GGUAUCG	0.916
ACCUACC	-0.803
AUUACUU	-0.734
CCGUAAA	-0.621
AACUCUU	-0.883

Sequence	RNAcompete 7-mer binding Z-score
GUCAGCC	-0.431
AGUAUGC	0.0204
GGAGCCC	0.0786
AAACAGU	-0.129
AACCGCG	-0.351
GAGACGG	1.9
GCACCUC	-0.446
GGAAGAU	1.55
CUUGGGG	1.13
AUAGGAA	2.49
UAACACC	-0.686
CGACGCC	-0.628
UUAUACA	-0.493
UGGGAUC	1.83
CCUAACC	-0.85
AUCGACC	-0.916
GCAGGUC	0.527
UGGCCGU	-0.14
UUAAAGG	0.789
GCGAUCU	-0.701
UACUUAU	-0.686
CAAAAUA	-0.486
GGCCUGC	-0.595
UGCCACU	-0.741
AGGCCUA	-0.602

Sequence	RNAcompete 7-mer binding Z-score
UUGACUC	-0.697
GCCCACC	-0.879
ACUCCUA	-0.806
GAGAAGA	1.04
UGAAUUA	-0.209
GUAGAAA	0.807
UUAUAGA	-0.369
ACGUUCC	-0.515
CAGUCGA	-0.162
CUUAUAG	-0.635
AAUCAAG	0.202
UACGUUC	-0.686
GGUUGUC	0.253
ACACGGU	0.497
CCGAGCU	-0.763
AUAGCAC	-0.388
AGGUCCC	-0.493
CUCAUCG	-0.701
UGGAGUG	2.72
CCACGAC	-0.541
UAAGAGA	0.304
UAUUAGC	-0.358
UACAUGG	0.971
GACGGAA	1.46
UAGUAGU	0.0532

Sequence	RNAcompete 7-mer binding Z-score
GAUAAAC	-0.144
AGACCAA	-0.439
CACUAGG	0.257
UUGCCAC	-0.726
UGUGGAU	1.5
GAAUCCU	-0.803
UGAUCAC	-0.136
GGCUGUC	-0.504
UGGUACG	1.22
GCCCCCC	-0.246
CGUACGC	-0.577
CUACUGC	-0.606
CGGCUUU	-0.857
UUCUCCC	-0.766
GAUACUU	-0.694
AUCUCUC	-0.89
CGGGCCG	0.133
GUUAAUC	-0.271
GAGCCGU	-0.391
UUUACGC	-0.799
ACCAGCC	-0.675
UCGCCUG	-0.755
GUCUCUU	-0.661
ACGGGUG	3.24
AAACCCA	-0.661

Sequence	RNAcompete 7-mer binding Z-score
CUCCUUG	-0.803
GGGAGUC	1.83
AGCCAGG	0.661
UGAUGAU	-0.0598
UGAUAAU	-0.431
UUACCCG	-0.737
CCCGUCU	-0.854
CGUCGGA	0.0859
GUUCAAU	-0.242
UUCUGGU	-0.424
GAUGAUU	-0.107
CAACCAU	-0.519
GAUAGUC	-0.311
CGCGUGA	-0.158
AUUCAAU	-0.231
UACCGAG	-0.165
GACCCUG	-0.704
